Among all 310,000 compounds or so, about 14,000 (4.5%) showed an effect of 50% or more. The effect is printed as a negative number. The list shows a part of the results.
Biological target: human ether-à-go-go-related gene (hERG) potassium channel (human, UniProt Q12809)
Assay: primary screen, population patch clamp on CHO cells stably expressing hERG
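Also: peak tail current of the secondary pulse compared with the same well before compound.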

Sequence of human ether-à-go-go-related gene (hERG) potassium channel (Q12809 whole entry, looked up): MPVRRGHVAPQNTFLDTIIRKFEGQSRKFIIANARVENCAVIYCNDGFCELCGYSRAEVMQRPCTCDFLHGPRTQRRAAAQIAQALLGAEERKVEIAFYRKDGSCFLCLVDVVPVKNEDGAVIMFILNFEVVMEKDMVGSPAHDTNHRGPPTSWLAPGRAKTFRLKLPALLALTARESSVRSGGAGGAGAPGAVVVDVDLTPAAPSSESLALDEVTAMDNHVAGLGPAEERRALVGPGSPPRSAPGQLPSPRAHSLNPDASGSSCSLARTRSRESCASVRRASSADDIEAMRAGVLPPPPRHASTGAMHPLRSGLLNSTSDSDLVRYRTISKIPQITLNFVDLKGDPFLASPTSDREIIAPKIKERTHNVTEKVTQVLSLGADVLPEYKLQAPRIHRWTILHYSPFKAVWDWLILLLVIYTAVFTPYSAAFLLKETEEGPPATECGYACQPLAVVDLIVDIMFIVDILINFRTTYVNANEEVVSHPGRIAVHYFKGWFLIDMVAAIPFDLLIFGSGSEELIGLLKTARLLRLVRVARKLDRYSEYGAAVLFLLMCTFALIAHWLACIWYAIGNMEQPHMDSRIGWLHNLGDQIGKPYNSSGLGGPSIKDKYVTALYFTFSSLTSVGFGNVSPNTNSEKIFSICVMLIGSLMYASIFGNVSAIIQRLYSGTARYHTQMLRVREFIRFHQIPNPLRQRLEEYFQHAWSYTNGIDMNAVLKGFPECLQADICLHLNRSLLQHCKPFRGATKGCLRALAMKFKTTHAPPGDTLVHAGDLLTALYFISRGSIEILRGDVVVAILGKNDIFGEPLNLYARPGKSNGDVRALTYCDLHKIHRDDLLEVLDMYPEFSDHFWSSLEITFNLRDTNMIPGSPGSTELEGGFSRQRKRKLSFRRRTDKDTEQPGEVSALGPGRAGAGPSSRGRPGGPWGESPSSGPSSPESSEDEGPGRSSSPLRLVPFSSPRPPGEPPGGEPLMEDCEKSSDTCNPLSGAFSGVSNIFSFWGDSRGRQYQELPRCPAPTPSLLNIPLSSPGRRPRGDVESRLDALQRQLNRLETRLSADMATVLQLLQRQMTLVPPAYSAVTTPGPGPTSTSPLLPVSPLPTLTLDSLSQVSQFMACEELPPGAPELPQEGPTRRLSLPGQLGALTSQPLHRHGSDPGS

SMILES | hERG current change (%, negative = inhibition) at 10uM
CCOC(=O)c1c(NC(=O)COC(=O)C2CC2C)sc(C)c1C (centres unmarked) | 19.6%
O=C(COC(=O)/C=C/c1cccc(Cl)c1)Nc1ccccc1-c1ccccc1 | 7.61%
Cc1ccc2[nH]c(=O)c(CN(Cc3ccccc3)C(=S)NCCCN(C)C)cc2c1 | -24.9%
CC(C)(C)OC(=O)NCCCC1=CC2=CC(=O)C(C)(OC(=O)c3ccco3)C(=O)C2=CO1 (centres unmarked) | 5.99%
Cc1ccc(C)c(COC(=O)CCN=C2NS(=O)(=O)c3ccccc32)c1 | -10.4%
Cc1ccc(-c2nc3cnccn3c2Nc2c(C)cccc2C)o1 | -20.4%
CCN(CC(=O)NCc1ccc(F)cc1)C(=O)CN1CCN(c2ccc(OC)cc2)CC1.O=C(O)C(=O)O | -61.9%
Cc1cc(C)n(/C(=C/N(C)C)C(=O)c2ccccc2)n1 | 15.6%
O=C1/C(=C\c2cccnc2)CCc2ccccc21 | -7.61%
O=C(NCCCNCCCNC(=O)c1ccccn1)c1ccccn1 | -12.7%
Cc1cc(/C=C(\C#N)C(N)=O)c(C)n1-c1ccc(N2CCOCC2)c([N+](=O)[O-])c1 | -5.05%
COc1ccc(CCn2nnnc2C(c2ccccc2)N2CCN(C)CC2)cc1OC.Cl (centres unmarked) | 7.37%
COCCSc1nnc(NC(=O)c2ccco2)s1 | 26.8%
Cc1ccc(S(=O)(=O)N(C)c2ccc(OCC(=O)OCC(=O)N(CC#N)c3ccccc3)cc2)cc1 | -8.59%
CCCCN1CCC(COC(=O)c2cc(Cl)c(N)c3c2OCCO3)CC1.Cl | -59.4%
CCn1c(SCC(=O)c2ccccc2)nc2c(c1=O)SC(C)C2 (centres unmarked) | 1.28%
COc1ccc(C2Nc3ccccc3NC3=C2C(=O)CC(C)(C)C3)cc1O (centres unmarked) | 19%
CCOC(=O)c1c(NC(=O)CSc2nc3ccccc3s2)sc(C)c1C | 10.6%
O=C(NC(=S)Nc1ccc(F)c(Cl)c1)C1CC1 | -15%
O=C(NC(c1ccccc1)c1ccccc1)c1ccc(Br)o1 | 1.04%
Cc1ccc(-c2noc(CSc3nnc(-c4cccs4)n3C)n2)cc1 | 7.56%
CCOc1ccccc1C1CC(c2ccc(F)cc2)Nc2nc(N)nn21 (centres unmarked) | -48.1%

SMILES | hERG current change (%, negative = inhibition) at 10uM
O=c1cc(-c2ccccc2)c2ccc(O)c(CN3CCCCC3)c2o1 | -8.89%
Cc1cc(=O)c(C(=O)O)nn1-c1ccccc1[N+](=O)[O-] | 6.49%
Cc1ccc(Cl)cc1NC(=O)COC(=O)CC1CC2CCC1C2 (centres unmarked) | -0.084%
CCN(CC)CCNc1ccnc2cc(Cl)ccc12 | -31.5%
Cc1ccc(S(=O)(=O)Oc2ccc(/C=N/NC(=O)c3cccnc3)cc2)cc1 | 9.82%
CN(CCc1ccccn1)C(=S)Nc1ccc(Cl)c(Cl)c1 | -3.59%
COc1cc(C(=O)NCCNC(=O)c2ccc(C)nc2)cc(OC)c1OC | 11.8%
COc1ccc(/C=C/C(=O)N2CCN(C)CC2)cc1OC | 6.7%
CC(/C=C1\NC(=S)NC1=O)=C\c1ccccc1 | 19.4%
Cc1ccc(CNC(=O)c2oc3ccc(S(=O)(=O)N4CCC5(CC4)OCCO5)cc3c2C)cc1 | -3.35%
Cc1cc(C(=O)Nc2cccnc2)on1 | -3.6%
COc1ccc(N2C(=O)c3cccc4c(N(C)CCO)ccc(c34)C2=O)cc1 | 16.1%
CC1CN(C(=O)Nc2ccc(F)cc2)C2(CCCCCC2)O1 (centres unmarked) | 4.2%
Cc1ccc(CSCC(=O)Nc2ccc(F)cc2)cc1 | -11.2%
N#Cc1ccc(NC(=S)Nc2ccccc2)cc1 | 1.45%
CC(NC(=O)CCn1ccc2cc(S(=O)(=O)N3CCCC3)ccc21)c1ccccc1 (centres unmarked) | 0.519%
CCSc1nc2c(c(=O)[nH]c(=O)n2C)n1C/C=C(/C)Cl | -17.2%
CCOC(=O)CCCNC(=O)c1cncc(O)c1.Cl | -7.47%
CCOC(=O)/C=C/C(=O)Nc1ccc(S(=O)(=O)N2CCc3ccccc32)cc1 | 5.87%
COC(=O)C1=CN(c2cccc(Cl)c2)C=C(C(=O)OC)C1c1cccc(OC)c1 | 18.1%
COc1ccc(NC(=O)CSc2nc3n[nH]c(C)c3c(=N)n2-c2ccc(Cl)c(C)c2)cc1OC | 16%
COc1ccc(C2=NO[C@@H]3C(=O)N(Cc4ccccc4)C(=O)[C@H]23)c(OC)c1 | 12.8%

From publication PMC4336329 (PLoS ONE, 2015)
